Here are results for 50 sequences from the supplement of paper PMC12645437, “Orthogonal IMiD-Degron Pairs Induce Selective Protein Degradation in Cells” (ACS Chemical Biology, 2025).

The labels stand for the following.
B1: Q9UKT9 (peptide)
chain: FGCPVCGAQFTQKGNLLRHIKL
B2: Q9UKT9 (peptide)
chain: FMCDICGAHFTQKGNLLRHIKL
B3: Q9UKT9 (peptide)
chain: FACEVCGAPFTQKGNLLRHIKL
B4: Q9UKT9 (peptide)
chain: FRCEVCGARFTQKGNLLRHIKL
B5: Q9UKT9 (peptide)
chain: FICEQCGAKFTQKGNLLRHIKL
B6: Q9UKT9 (peptide)
chain: FFCDVCGAQFTQKGNLLRHIKL
B7: Q9UKT9 (peptide)
chain: LLCNQCGFICTQKGNLLRHIKL
B8: Q9UKT9 (peptide)
chain: FGCNQCGRLFTQKGNLLRHIKL
B9: Q9UKT9 (peptide)
chain: FKCNICGARFTQKGNLLRHIKL
B10: Q9UKT9 (peptide)
chain: FFCDICGACFTQKGNLLRHIKL
B11: Q9UKT9 (peptide)
chain: FFCDQCGAQFTQKGNLLRHIKL
B12: Q9UKT9 (peptide)
chain: FYCPICGACFTQKGNLLRHIKL
B13: Q9UKT9 (peptide)
chain: LYCNQCGFECTQKGNLLRHIKL
B14: Q9UKT9 (peptide)
chain: LACPICGFDCTQKGNLLRHIKL
B15: Q9UKT9 (peptide)
chain: FNCDVCGARFTQKGNLLRHIKL
B16: Q9UKT9 (peptide)
chain: FECNICGAAFTQKGNLLRHIKL
B17: Q9UKT9 (peptide)
chain: FVCDVCGAHFTQKGNLLRHIKL
B18: Q9UKT9 (peptide)
chain: LICEICGFTCTQKGNLLRHIKL
B19: Q9UKT9 (peptide)
chain: FRCNVCGAIFTQKGNLLRHIKL
B20: Q9UKT9 (peptide)
chain: LQCEICGFCCTQKGNLLRHIKL
B21: Q9UKT9 (peptide)
chain: FRCPQCGAYFTQKGNLLRHIKL
B22: Q9UKT9 (peptide)
chain: FSCDVCGACFTQKGNLLRHIKL
B23: Q9UKT9 (peptide)
chain: FNCPICGAAFTQKGNLLRHIKL
B24: Q9UKT9 (peptide)
chain: FWCEVCGASFTQKGNLLRHIKL
B25: Q9UKT9 (peptide)
chain: FVCDQCGAPFTQKGNLLRHIKL
B26: Q9UKT9 (peptide)
chain: LFCNQCGFFCTQKGNLLRHIKL
B27: Q9UKT9 (peptide)
chain: FACEICGHMFTQKGNLLRHIKL
B28: Q9UKT9 (peptide)
chain: FLCPQCGAWFTQKGNLLRHIKL
B29: Q9UKT9 (peptide)
chain: FDCEQCGAYFTQKGNLLRHIKL
B30: Q9UKT9 (peptide)
chain: LWCEICGFYCTQKGNLLRHIKL
B31: Q9UKT9 (peptide)
chain: FQCPICGRKFTQKGNLLRHIKL
B32: Q9UKT9 (peptide)
chain: LCCPICGFACTQKGNLLRHIKL
B33: Q9UKT9 (peptide)
chain: FYCEICGADFTQKGNLLRHIKL
B34: Q9UKT9 (peptide)
chain: FACEICGHVFTQKGNLLRHIKL
B35: Q9UKT9 (peptide)
chain: FECNQCGHEFTQKGNLLRHIKL
B36: Q9UKT9 (peptide)
chain: FVCNQCGHCFTQKGNLLRHIKL
B37: Q9UKT9 (peptide)
chain: FYCEVCGAMFTQKGNLLRHIKL
B38: Q9UKT9 (peptide)
chain: FSCNQCGRPFTQKGNLLRHIKL
B39: Q9UKT9 (peptide)
chain: FKCEICGAAFTQKGNLLRHIKL
B40: Q9UKT9 (peptide)
chain: FKCNVCGAQFTQKGNLLRHIKL
B41: Q9UKT9 (peptide)
chain: LCCPICGFECTQKGNLLRHIKL
B42: Q9UKT9 (peptide)
chain: FKCPICGRTFTQKGNLLRHIKL
B43: Q9UKT9 (peptide)
chain: LSCPICGFFCTQKGNLLRHIKL
B44: Q9UKT9 (peptide)
chain: FRCSVCGHMFTQKGNLLRHIKL
B45: Q9UKT9 (peptide)
chain: FDCDVCGAKFTQKGNLLRHIKL
B46: Q9UKT9 (peptide)
chain: FFCNQCGRFFTQKGNLLRHIKL
B47: Q9UKT9 (peptide)
chain: FWCPVCGAHFTQKGNLLRHIKL
B48: Q9UKT9 (peptide)
chain: FTCEICGATFTQKGNLLRHIKL
B49: Q9UKT9 (peptide)
chain: FVCDICGAAFTQKGNLLRHIKL
B50: Q9UKT9 (peptide)
chain: FVCEQCGAAFTQKGNLLRHIKL

This is one part of the list.
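Further: jurkat cells carrying a lentiviral library of mutant zinc finger degrons fused to EGFP plus mCherry, mCherry+ cells FACS sorted, degron abundance counted by next-generation sequencing.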

This assay deals with no compound (DMSO). The experiment in a line: log2 fold change of degron read counts, EGFP-low vs EGFP+ sorted cells; higher = lower degron-EGFP level without compound (poor expression or instability). The conditions noted are these: compound: DMSO control; 18 h.
With B1, the “log2 fold change of degron read counts” value is -0.234.
With B2 the figure was -1.19; with B3, -0.509; with B4, -1.43.
On to B5, for which the “log2 fold change of degron read counts” value was -1.65.
As to B6, the “log2 fold change of degron read counts” value was -1.51.
On to B7, for which the “log2 fold change of degron read counts” value amounted to 1.34.
With B8 the figure was 0.845; with B9, -0.509; with B10, -0.64.
Take B11: the “log2 fold change of degron read counts” value was -1.38.
With B12, the “log2 fold change of degron read counts” value was found to be 0.666.
On to B13, for which the “log2 fold change of degron read counts” value was -0.27.
To B14 belongs 0.642; to B15, -0.0975.
With B16, the “log2 fold change of degron read counts” value is -0.579.
As to B17, the “log2 fold change of degron read counts” value was -1.3.
In the case of B18, the “log2 fold change of degron read counts” value was -0.382.
Regarding B19, the “log2 fold change of degron read counts” value is -0.294.
B20: the “log2 fold change of degron read counts” value was -0.289.
On to B21, for which the “log2 fold change of degron read counts” value was 0.282.
Consider B22, for which the “log2 fold change of degron read counts” value was -1.41.
With B23, the “log2 fold change of degron read counts” value is -0.622.
B24: the “log2 fold change of degron read counts” value is -1.85.
Turning to B25, the “log2 fold change of degron read counts” value is -0.716.
Turning to B26, the “log2 fold change of degron read counts” value was determined as 2.5.
Take B27: the “log2 fold change of degron read counts” value was -1.34.
For B28, the “log2 fold change of degron read counts” value came to 1.07.
On to B29, for which the “log2 fold change of degron read counts” value is -0.28.
Take B30: the “log2 fold change of degron read counts” value amounted to 2.35.
For the sequence B31, the “log2 fold change of degron read counts” value was -0.327.
With B32, the “log2 fold change of degron read counts” value turned out to be 0.865.
In the case of B33, the “log2 fold change of degron read counts” value is -1.55.
With B34 the figure was -0.647; with B35, -0.771.
To B36 belongs -0.545; to B37, -0.413.
B38: the “log2 fold change of degron read counts” value is -0.133.
For the sequence B39, the “log2 fold change of degron read counts” value is -1.68.
In the case of B40, the “log2 fold change of degron read counts” value is -0.99.
Consider B41, for which the “log2 fold change of degron read counts” value was 0.136.
To B42 belongs -1.11; to B43, 1.41; to B44, 0.142.
As to B45, the “log2 fold change of degron read counts” value was -2.32.
Take B46: the “log2 fold change of degron read counts” value was 1.64.
On to B47, for which the “log2 fold change of degron read counts” value turned out to be 1.18.
With B48, the “log2 fold change of degron read counts” value is -2.54.
In the case of B49, the “log2 fold change of degron read counts” value was -1.55.
As to B50, the “log2 fold change of degron read counts” value is -2.32.
